The labels stand for the following.
B1: LINE1-mini (parent)
chain: GGCAGAGCUCAACACAGCGUGGCAAAGUGGCUGUGGCUAGACUGCC

Read counts are not given, so values of variants with three or more changes are uncertain.

From the RNAGym collection of RNA variant scans (doi:10.7554/elife.90254) come the findings set out here.

The variants in this data set derive from B1. The data set is described as follows: self-cleavage, relative activity (ratio to wild type); higher = more cleavage; in vitro, sequencing; the parent is a self-cleaving ribozyme.
On to C3U A4U U9G G19U U32C, for which the self-cleavage stood at 0.03. For C3U A6C A11C C15G A24G U32A the value was 0.01; for C3U A12C A25U G30U G33A, 0.1. With C3U A12U G19A G29A G35A, the self-cleavage came to 0.03.

For the variant C3G U28A C31A, the self-cleavage came to 0.1. For C3U A6G U9A A25U G30A C31A the value was 0.02; for C3U A11U G27U C37G, 0.02. On to C3U A4C G29U C42U, for which the self-cleavage turned out to be 0.11. For C3U A6U A16C C23A C46G the value was 0.12; for C3U A4U A26U, 0.24; for C3G U20C G35A, 0.05. As to C3G U32C U34G A39U, the self-cleavage came to 0.11.

In the case of C3G U9G G21U C23G C31U, the self-cleavage was 0.01.

On to C3G U9A A14G G21U C37A U38A, for which the self-cleavage amounted to 0.54. In the case of C3U A4U A6C G17C U28C U34G C46A it was 0.05. For C3U A6U A14U the value was 0.05; for C3U A11C C45A, 0.01. For the variant C3U A14C A26C G29A G44U, the self-cleavage was 0.06. In the case of C3U A6C A12U A16G G17C A25G C31U G35U it was 0.05; in that of C3U A11G G19C G21A, 0.03; in that of C3U A4G C15A C23G G27U G33U G44C C45G, 0.07. For C3U A4G C8G G21C C37A the value was 0.04; for C3U A14C U38A C46G, 0.03. For C3U A4C C46A the value was 0.04; for C3U A6C U38A, 0.07; for C3U A14C G44C, 0.06. Turning to C3U A11G U28A U34C G36U, the self-cleavage was 0.01.

As for C3U A14C U20A C46A, the self-cleavage came to 0.03. For C3U A6U G17U G36A the value was 0.11; for C3G G44A C46A, 0.24; for C3U A11U C37A A41C, 0. On to C3U A12U G21C G36C G40A, for which the self-cleavage is 0.09.

For C3U A11U A12C G17C G30C U34G, the self-cleavage was found to be 0.01.

Regarding C3G G36A U38G, the self-cleavage worked out at 0.01. For C3U A14C U20C G33U the value was 0.12; for C3U A14C U32G, 0.03; for C3U A12C A16U A25C G27U C37A C42U, 0.02.

As to C3G U28G C31G C42A C45A, the self-cleavage was 0.02. Take C3U A11U C23U G33U: the self-cleavage was found to be 0.01.

Consider C3U A4U G7A U28G C31A U38A G40C, for which the self-cleavage came out at 0. Regarding C3G U9C A16C C45U, the self-cleavage was 0. In the case of C3U A4U A12C U28G U34C C42U it was 0.03. For C3G U9G A14C A26C G27A the value was 0.09. As for C3G U20G U28A C31U, the self-cleavage turned out to be 0.16. In the case of C3U A11U A12C C15G C46U, the self-cleavage came to 0.02. Turning to C3U A11C U38A, the self-cleavage was determined as 0.02.

Regarding C3U A11U C37G, the self-cleavage worked out at 0.04. For C3U A6G U9A C15G G33U the value was 0.35; for C3G U9G G27U, 0.11. In the case of C3G U28A G36U it was 0.15. With C3G U9C G22C U43A, the self-cleavage was 0.02. For the variant C3G U9A G30A, the self-cleavage came out at 0.3.

Consider C3U A6G G44U, for which the self-cleavage was determined as 0.12. For C3U A4G G22U C45U the value was 0.07; for C3G U9C A26U G29C, 0.03; for C3U A11C G35U, 0. In the case of C3G G36C G40C it was 0.1; in that of C3U A6U U9C, 0.01. In the case of C3G G35U G40A A41G G44A it was 0.11. For the variant C3U A11C U20A G33U G36C G44U, the self-cleavage was 0. For C3G U20C A26G U32A the value was 0.08.

As for C3U A6G G7A C42U, the self-cleavage was 0.13.

In the case of C3U A4U G19U, the self-cleavage came to 0.01. In the case of C3G U9C C13A A14G C23G U43C it was 0.02. In the case of C3U A4G U20A C31A C42U it was 0.02. In the case of C3G U9G C23U A25U it was 0.29. As for C3U A4G A16G C37A, the self-cleavage was found to be 0.22. In the case of C3U A6U C8U U9G U20C A25C it was 0.05; in that of C3U A4C A12U C18G G44C C45A, 0.02. For C3U A12U G29C the value was 0.08; for C3U A6G G30U C37A, 0.38; for C3U A11G G19A U28A, 0.01. In the case of C3G G40U C45U, the self-cleavage worked out at 0.11. C3U A11G G33U C42A: the self-cleavage amounted to 0.01. For C3U A4C C23G, the self-cleavage was determined as 0.03. In the case of C3U A12G G44U C45A, the self-cleavage is 0. For C3G U28G C31G the value was 0.08; for C3G U20G G21U U38A A41G, 0.12. On to C3U A6U A14C G40U, for which the self-cleavage is 0.18. For C3U A11U U43A, the self-cleavage came to 0.08.

Regarding C3G U20A G35A C46A, the self-cleavage came out at 0.05.

Consider C3U A6C A16U C45G, for which the self-cleavage was found to be 0.09. For the variant C3U A4U G7A G40A, the self-cleavage was 0.07. In the case of C3U A14G G21A A26G G35C it was 0.09; in that of C3G U9A C10A A16U, 0. For C3U A4C A26C G29A the value was 0.04; for C3U A4C A6U C31G, 0.04. As for C3U A6G U9G G30U G40U, the self-cleavage turned out to be 0.03. C3U A11C C13G G17U G30A: the self-cleavage was 0.02.

Consider C3U A6G U20G G36A, for which the self-cleavage was 0.05. For C3G G44U C46G the value was 0.17; for C3G U20G A26U G30C A39G C42G, 0.14; for C3G U20C G36U, 0.25. For C3G U9A G35C C42A C45U C46G, the self-cleavage was 0.06.

On to C3U A6G U34A, for which the self-cleavage turned out to be 0.01. For C3G U9A G22U G40C the value was 0.21. In the case of C3G U20A A25C G44C, the self-cleavage turned out to be 0.07. As to C3U A4C C10U C23U A24G, the self-cleavage was found to be 0.05. Turning to C3U A6U C15U A39G, the self-cleavage is 0.05. For C3G U20C G30A the value was 0.15; for C3G G40C C45G, 0.03; for C3U A6C G17C G19A U20C, 0.15.

In the case of C3U A4U A6C C15G, the self-cleavage is 0.04. For C3U A14C G22C C37U the value was 0.01; for C3U A11U C15G, 0.02; for C3U A6C A41C, 0.05.

Regarding C3U A4U G27A C42A, the self-cleavage is 0.05. In the case of C3U A6C G27C G33A it was 0.05.

In the case of C3U A4G A12U G44U, the self-cleavage was determined as 0.05. In the case of C3U A14C A26C C45U it was 0.1. In the case of C3U A6G C37G it was 0.03; in that of C3U A4U C10G C15G A25U A39U, 0.02; in that of C3G G44A C45U, 0.08. For C3U A11C G19U U20C A41C the value was 0.02. C3U A14G C31G: the self-cleavage is 0.05. For C3U A11C G21U G36A C45A the value was 0.03; for C3U A14C C42U, 0.04. Turning to C3G U9C G19A C23U, the self-cleavage is 0.03. Turning to C3U A4U C15A A24C, the self-cleavage was 0.03. Turning to C3U A6G C8U U20G, the self-cleavage is 0.31. In the case of C3U A4C U20C G44U it was 0.09. For C3U A12C G17A C18A the value was 0.02.

Regarding C3G U9G U28A C42G, the self-cleavage stood at 0.05. For C3G U38C G40C the value was 0.03; for C3G U9C C18G U20A G44A, 0.01.

On to C3G G35C A39C, for which the self-cleavage amounted to 0.02. For C3U A6G C10A C15U G27A the value was 0.03.

In the case of C3G U20G G22C G27U C46A, the self-cleavage turned out to be 1.13.

Turning to C3U A11U G19C G36C, the self-cleavage came out at 0.02.

For C3U A12G A39C C45G, the self-cleavage came to 0.02. On to C3U A6U C8G C45G, for which the self-cleavage was found to be 0.92.

In the case of C3G G36A G40A, the self-cleavage is 0.69.

For the variant C3G U9A A39G, the self-cleavage is 0.96. In the case of C3U A11U U38A it was 0.01; in that of C3G G40A A41U U43A, 0.06. For C3U A4U C10A U20A A26C the value was 0.06. As for C3U A11U G36A, the self-cleavage was found to be 0.01. For C3U A4U G5U C31G the value was 0.04.

For the variant C3G U9C U34C, the self-cleavage was 0.02.

Turning to C3G U9C A12G, the self-cleavage came out at 0.03. Consider C3U A6G C13U G22A C37U G44U, for which the self-cleavage is 0.06. For C3U A11C C15U the value was 0.03; for C3U A11C C15A, 0.02. Turning to C3G U28A U43A, the self-cleavage came to 0.08. Consider C3G U32G G35C, for which the self-cleavage was 0.17. In the case of C3U A4C C13A U34A C37A A39G it was 0.22. Consider C3U A6U C10U, for which the self-cleavage turned out to be 0.09.

Turning to C3G U43A G44A, the self-cleavage turned out to be 0.04. In the case of C3U A12G G30C G44A it was 0.01; in that of C3U A4C A6U A16U G30U G33U, 0.02; in that of C3G U9A C18G U32G C45A, 0.21. Consider C3U A6U G7C C15G G21A C37U, for which the self-cleavage is 0.04.

In the case of C3U A4U C15U G19C G44C, the self-cleavage was found to be 0.09. For C3U A12U G36A G40C the value was 0.12; for C3U A6G C8U G19C U28C C46U, 0.05; for C3U A6U A26G C42U, 0.09. Turning to C3U A4G G44U, the self-cleavage came to 0.16. For C3G U9A A14C G33A C46G the value was 0.17; for C3U A6G A12G G33U, 0.05; for C3U A12G G30U G33U U34G C45A, 0.

Turning to C3U A14G C31A C42A, the self-cleavage came to 0.04.

As to C3U A11U G19C G21A, the self-cleavage worked out at 0.02. With C3U A4U G7U C15A U34A, the self-cleavage was determined as 0.08. On to C3U A6U G33A G40A A41U, for which the self-cleavage was 0.22. On to C3G U9G A16U G29U G30A, for which the self-cleavage was determined as 0.11. In the case of C3G G33U U43A, the self-cleavage is 0.09. C3U A4G A11G: the self-cleavage was 0.03.
